Variants at the background level are over-represented here.
B1: TPR 5TU (parent)
chain: GGAUCUUCUCGAUCUAACAAAAAAGACAAAUCUGCCACAAAGCUUGAGAGCAUCUUCGGAUGCAGAGGCGGCAGCCUUCGGUGGCGCGAUAGCGCCAACGUUCUCAACUAUGACACGCAAAACGCGUGCUCCGUUGAAUGGAGUUUAUCAUG

Variants of: B1
Assay: polymerase ribozyme fitness, log enrichment relative to wild type (log ratio); higher = more active; in vitro selection for triplet polymerase activity
Procedure, shortened: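 One round of in vitro selection, in triplicate, was applied to PCR-built, transcribed mutant libraries of each subunit of a heterodimeric triplet polymerase ribozyme. The steps were annealing with a biotinylated primer, partner subunit and triplets, incubation frozen at −7 °C, gel excision of extended constructs, streptavidin-bead capture and RT-PCR. Fitness is the logarithm, base 2, of genotype enrichment over wild-type enrichment from inverse-variance-weighted replicate averages of Illumina-sequenced inputs and outputs, keeping genotypes with ≥10 input reads and ≥1 read per output.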

Variant	polymerase ribozyme fitness (log ratio)
GGAUCUUCUCGAUCUACCAAAAAAGUCAAAUCUGCCACAAAGCUUGAGAGCAUCUUCGGAUGCAGAGGCGGCAGACUUCGGUGACGCGAUAGCGCCAACGUUCUCAACUAUGACACGCAAAACGCGUGCUCCGUUGAAUGUAGUUUAUCAUG	≤ -4.2
GGAUCUUCUCGAUCUACCAAAAAAGACCUAUCUGCCACAAAGCUUGAGAGCAUCUUCGGAUGCAGAGGCGGCAGCCUUCGGUGGCGCGAUAGCGCCAACGUUCUCAACUAUGACACGCAAAACGCGUGCUCCUUUGAAUGGAGUUUAUCAUG	≤ -4.2
GGAUCUUCUCGAUCUACCAAAAAAGACAGAUCUGCCACAAAGCUUGAGAGCAUCUUCGGAUGCAGAGGCGGCAGCCUUCGGUGGCGCGGUAACGCCAACGUUCUCAACUAUGACACGCAAAACGCGUGCUCCGUUGAAUGGAGUUUAUCAUU	≤ -4.2
GGAUCUUCUCGAUCUACCAAAAAAGACAGAUCUACCACAAGGCUUGAGAGCAUCUUCGGAUGCAGAGGCGGCAGCCCUCGGUGGCGCGAUAGAGCCAACGGUCUCAACUAUGACACGCAAAACGCGUGCUCCGUUGAAUGGAGUUUAUCAUG	≤ -4.2
GGAUCUUCUCGAUCUACCAAAAAAGACAUAUCUGCCACAAAGCUUGAGAGCAUCUUCGGAUGCAGAGGCGGUAGCCUUCGCUGGCGCGAUAGCGCCAACGUUCUCAACUAUGACACGCAAAACGCGUGCUCCGUUGAAUUGAGUUUAUCAUG	≤ -4.2
GGAUCUUCUCGAUCUACCAAAAAAGACAAGUCUGCCACAAAGCUUGAGAGCAUCUUCGGAUGCAGAGGCGGCAGCCUUCGGUGGCGCGAUAGCGGCAACGUUCUCAACUAUGACACGCAAAACGCGUGCUCCGUUGAAUGGAGUUUAUCAUG	-3.8
GGAUCUUCUCGAUCUACCAAAAAAGACAAUUCUGCCACAAAGCUUGAGAGCAUCUUCGGAUGCAGAGGCGGUAGCCUUCGGUGGCGCGAUAGCGCCAACGUUCUCAACUAUGACACGCAUAACGCGUGCUCCCUUGAAUGGAGUUUAUCAUG	≤ -4.2
GGAUCUUCUCGAUCUACCAAAAAAGACAAUUCUGCCACAAAGCUUGAGAGCAUCUACGGAUGCAGAGGCGGCAGCCUUCGGUGCCGCGAUAGCGCCAACGUUCUCAACUAUGAAACGCAAAACGCGUGCUCCGUUGAAUGGAGUUUAUCAUG	≤ -4.2
GGAUCUUCUCGAUCUACCAAAAAAGACAAAUCUGCCCCAACGCUUGAGAGCAUCUUCGGAAGCAGAGGCGGCAGCCUUCGGUGGCGCGAUAGCGCCAACGUUCUCAACUAUGACACGCAAAACGCGUGCUCCCUUGAAUGGACUUUAUCAUG	≤ -4.2
GGAUCUUCUCGAUCUACCAAAAAAGACAAAUCUGCCACACAGCUUGAGAGCAUCUUCGGAUGCAGAGGCGGCAGCCAUCGGUGGCGCGAUAGCACCCAUGUUCUCAACUAUGGCACUCAAAACGCGUGCUCCGUUGAAGGGAGGUUAUCAUG	≤ -4.2
GGAUCUUCUCGAUCUACCAAAAAAGACAAAUCUGCCACAGAGCUUGAGAGCAUCUUCGGAUGCAGAGGCGGCAGCCUUAGGUGGCGCGAUAGCGCCAACGUUCUCAACUAUGACACGCAAAACGCGUGCUCCGUUGAAAGGAGUUUAUCAUG	≤ -4.2
GGAUCUUCUCGAUCUACCAAAAAAGACAAAUCUGCCACAGAGCUUGAGAGCAUCUUCAGAUGCAGAGGCGGCAGCCUUCGGUGGCACCAUAGCGCCAACGUCCUCAACUAUGACACGCAAAACGCGUGCUCCGUUGAAUGGAGUUUAUCAUG	≤ -4.2
GGAUCUUCUCGAUCUACCAAAAAAGACAAAUCUGCCACAAAGCUUGAGAGCCUCUUCGGAAGCAGAGGCGGCAGCCUUCGAUGGCGCGAGAGCGCCAACGUUCUCAACUAUGACACGGAAAACGCGUGCUCCGUUGAAUGGAGUUUAUCAUG	≤ -4.2
GGAUCUUCUCGAUCUACCAAAAAAGACAAAUCUGCCACAAAGCUUGAGAGCAUCUUCGGUUGCAGAGGCGGCAGCCUUCGUUUGCUCGAUAGAGCCAACGUUCUCAACUAUGACACGCAAAACGCGUGCUCCGUUGAAUGGAGUUUAUCAUG	-0.433
GGAUCUUCUCGAUCUACCAAAAAAGACAAAUCUGCCACAAAGCUUGAGAGCAUCUUCGGAUGCAGGGGCGGCAGCCUUCGGUGGCGCGAUAGCGCCAACGUUCUCAACUAUGACACGCAAAACGCGUGCUCCGUUGAAUGCAGUUUAUCAUU	≤ -4.2
GGAUCUUCUCGAUCUACAAAACAAGACAAAUCUGCCACAAAGCUUGAGAGCAUCUGCGGAUGCAGAGGCGGCAGCCUUCGGUGGCGCGAUAGCGCCAACGUUCUCAACUACGACACGCAAAAGGCGUGCUCCGUUGAACGGAGUUUAUCAUG	≤ -4.2
GGAUCUUCUCGAUCUACGAAAAAAGUCAAAUCUGCCACAACGCUGGAGUGCAUCAUCGGAUACAGAGGCGGCAGCCUUCGGUGGCGCGAUAUCGCCAACGUUCUCAAUUAUGACACGUAAAACGCGUGCUCCGUUGAAUGGAGUUUAUCAUG	≤ -4.2
GGAUCUUCUCGAUCUACGAAAAAAGACAAAUCUGCCACAUAGCUUGAGAGCAUCUUCGGAUGCAGAGGCGGCAGCCUUCGGUGGCUCGAUAGCGCCAACGUUCUCAACUAUGACACGCAAAACGCGUGCUCCGUUGAAUGGAGUUUAUCAUG	-1.43
GGAUCUUCUCGAUCUACUAAAAAAGACUAGUCUGCCACAAAGUUUGAGAGCAUCUUCGGAUGCAGAGGCAGCAGCCUUCGGUGGCGCGAUACCGCCAACGUUCUCAAUUAUGACACGCAAAACGCGUGCUCCGUUGAAUGGAGUUUAUCAUG	≤ -4.2

From the RNAGym collection of RNA variant scans (doi:10.1073/pnas.2313332121)
